44 sequences from the supplement of paper PMC11417369 can be followed below.

Some of the results follow.

In the assay the test system is PF3D7_0420300 AP2 domain 1 (GST-tagged). Kind of assay: gcPBM binding intensity (ln(normalized median fluorescence intensity)); higher = stronger DNA binding. In short, it runs like this: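 In this array assay, P. falciparum DNA-binding domains with a GST tag, expressed in E. coli, were applied for 1 h to primer-extended double-stranded 36-bp intergenic genomic probes and negative controls on an Agilent 4 × 180k array. Bound protein was visualised with Alexa488 anti-GST antibody at 488 nm. Binding intensity is the highest Masliner-normalised natural-log median intensity across replicate spots of either probe orientation.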
Consider “ATAAATACTAGGCACACACACATATATATATATATA [CACACA_site2080]”, for which the “gcPBM binding intensity (ln)” value was 9.81.
On to “ATATATATATATATATGTACATATATGTATACCTTA [XGTACX_site6791]”, for which the “gcPBM binding intensity (ln)” value was determined as 9.1.
Under “CAATAGTTCTTATGGGTGCAAACCACATATATATAA [GTGCAC_site9606]” stands 9.06; under “TTTATTTATCTGTATACACACTTTAATGAAAAGTTG [CACACA_site5400]”, 9.2; under “ACAAATCTAAGATAGTGTACATTTATATATATATAT [XGTACX_site8740]”, 9.26.
As for “ATATATATATAATAAACACACACATATACATATATG [CACACA_site9145]”, the “gcPBM binding intensity (ln)” value was found to be 9.92.
On to TATATATATATATAAGTGCATATAAAAATCGTTCGT, for which the “gcPBM binding intensity (ln)” value worked out at 9.42.
The result for “TTTATATACACACAGAAGAACAGAAATATTATATAT [TGCATGCA_negctrl_site483]” reads 9.55.
The result for “AATATAAATAAAAACACACACACACCCATATATATA [CACACA_site2267]” reads 10.1; that for “AAGGATATAACATACACACACACACCGATATATATA [CACACA_site6136]”, 10.2.
The result for “TATTTTTTTTTTATATGTACATAATTTCAAATAAAT [XGTACX_site7747]” reads 9.01; that for ATATATCATATTATAGTGCATTTATAATAATATTAT, 9.3; that for “TATTATCTGTAGTGTACACATATTATATAGTACTTT [CACACA_site4582]”, 9.44.
Turning to “AAAATTATATATTATTGTACATAAAATTTTGACATA [XGTACX_site4886]”, the “gcPBM binding intensity (ln)” value is 8.97.
“ATAACGATATATGTGCGTACTTATAGAATAAGCAAA [XGTACX_site6743]”: the “gcPBM binding intensity (ln)” value was 9.34.
For the sequence “AAAAATATATATAACACACACATAATATATATATAT [CACACA_site2537]”, the “gcPBM binding intensity (ln)” value was 9.88.
Regarding “TTATAACACATTACATGTACAAATATAAATATATTC [XGTACX_site6503]”, the “gcPBM binding intensity (ln)” value was 9.14.
In the case of “AAAAAAAAAAAAAAATGTACAAAAATTACTATAAAA [XGTACX_site7683]”, the “gcPBM binding intensity (ln)” value was 9.05.
“TTTTTTTTTGTTTACACACACAAAATATTATATGTA [CACACA_site2470]”: the “gcPBM binding intensity (ln)” value amounted to 9.66.
The result for “AGGAAAAACTTGAATGCATGCGCACATTCTAGTTTG [TGCATGCA_site776]” reads 9.08.
Take “TATTATTACGTAATATGTACATATATTTATACCACT [XGTACX_site5918]”: the “gcPBM binding intensity (ln)” value was found to be 9.35.
Take “AATATCTAAATAAAGTGTACTTACCTTATTAATTAT [XGTACX_site2276]”: the “gcPBM binding intensity (ln)” value amounted to 9.17.
Under “CCAATACATAGAAACTGTACATTATGCATTATACAC [XGTACX_site3531]” stands 9.33; under “AATTTAATCCGTAATAAGAAAAGAAAAAAAAAAAGA [GTGCAC_negctrl_site129]”, 9.39.
Under “ATTAGCTACAAACAAAGGCTACCTATAGCAAGAGGG [GTGCAC_negctrl_site33]” stands 9.48.
The result for “ATAATTTCTTTTACATGTACAAAATTTGCTTATATG [XGTACX_site5388]” reads 9.34; that for “TATATATATACATACATACACACATATATATATATA [CACACA_site4109]”, 9.59.
For the sequence “ATATATATAATGTGAAGTACATTTTGTTTACATATT [XGTACX_site8405]”, the “gcPBM binding intensity (ln)” value was 9.23.
On to “GGATTATTTATAGGAGTGCATACATATATATATATA [GTGCAC_site9454]”, for which the “gcPBM binding intensity (ln)” value is 9.14.
“TTTATTAAATAATCTCTTTTTATTACATAATAATAA [XGTACX_negctrl_site382]”: the “gcPBM binding intensity (ln)” value turned out to be 8.84.
Under “TTTACACTTTCCAATAGTACATATTAGAATAATTCT [XGTACX_site7734]” stands 9.11; under “TAATTTATGGAATATGTGCACTTGCTGATCACTTTT [GTGCAC_site9843]”, 9.22.
For the sequence “TATAGGTAAATGGACACACACATATTTATATTTATA [CACACA_site7683]”, the “gcPBM binding intensity (ln)” value turned out to be 9.82.
The result for “TGTAGTCTGGAGAAGAGTACATAGTATCTGGTAACA [XGTACX_site4944]” reads 9.06; that for “TTATTAGGTGTATAATGTACATATAATATATATATA [XGTACX_site3398]”, 9.06.
Under “TAATGTTTTTATATCACACACAAATATTAAATGATT [CACACA_site543]” stands 9.42; under “ATAGAAGCATCACACTGTACATGGATGAACAGAAAA [XGTACX_site7311]”, 9.44.
In the case of “TATAATATAAGGATCACACACAAACAGACATATATA [CACACA_site557]”, the “gcPBM binding intensity (ln)” value was 10.
The result for “GATATTAAAATATGTAGTACACATATTATATCATAT [XGTACX_site4167]” reads 9.18.
Take “TTAAAAATTATGGATACACACATATATATATATATT [CACACA_site2383]”: the “gcPBM binding intensity (ln)” value was found to be 9.47.
As to “ATAGTTCCTTTTAATACACACAAAAAAAAAAACATG [CACACA_site3415]”, the “gcPBM binding intensity (ln)” value was 9.5.
Under “AATAAACATAAATACACACACAAAAAAAAAAACATA [CACACA_site4396]” stands 10.3; under “TTTTTTTTTTTTTGATGTACTAAAAAAAATGAGCCT [XGTACX_site8535]”, 8.78.
The result for “AAATATTACTACACTACATGCAGTTTTAGGTACACT [TGCATGCA_site42]” reads 9.21.
